Test results reported in patent US20060286112A1.

Substrate: I domain-GST, recombinant GST fusion protein containing amino acids 127-340 of the human VLA-1 α1 subunit (human) (UniProt P56199)
Test: SPR, mAb captured on anti-human IgG, I domain-GST in solution, 1 mM Mg2+

Chain of UniProt P56199 (P56199 151-364 limits assumed, form in doubt): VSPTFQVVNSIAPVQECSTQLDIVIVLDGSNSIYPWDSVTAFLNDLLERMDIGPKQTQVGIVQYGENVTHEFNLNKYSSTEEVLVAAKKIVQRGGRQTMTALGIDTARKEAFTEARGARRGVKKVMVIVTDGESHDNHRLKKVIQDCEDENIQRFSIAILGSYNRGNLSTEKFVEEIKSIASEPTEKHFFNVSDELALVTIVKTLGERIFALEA

- Kd: 2.55 nM
- koff: 9.95e-05 s⁻¹
- kon: 39000 M⁻¹ s⁻¹
B1: 7.46 (antibody, V domains shown)
VH: QVQLQESGPGLVKPSETLSLTCTVSGGSFSSYYWSWIRQPAGKGLEWIGRIYTSGSTNYNPSLKSRVTMSVDTSKNQFSLKLSSVTAADTAVYYCAREGYDFWSGYYNYYYGMDVWGQGTTVTVS
VL: [letters of about 100 residues left out]
